From the supplement of paper PMC7826260
This is one part of the list. Cleavage of a single-stranded DNA pool by Rep nickase domains was read by sequencing (3 µM enzyme, 1 h, 37 °C); shown is the middle of each 90-letter strand. Values are log2 of uncut reads against the no-enzyme pool; uncut sequences lie near 0, cut ones below; no hit call is given. The scaling is to total reads; values above 0 arise when much of the pool is cut.

Key:
Assay in all cases: uncleaved DNA left, log2 of reads against the no-enzyme library (log2 ratio); higher = less cleavage (more negative = more Rep cleavage of the k-mer); sequences stand for … in CTCGTCCG…ACCGGAGA
[1] = test system: T1, Rep nickase domain of Muscovy duck circovirus
T1 sequence (Rep 1-111, printed without the tag): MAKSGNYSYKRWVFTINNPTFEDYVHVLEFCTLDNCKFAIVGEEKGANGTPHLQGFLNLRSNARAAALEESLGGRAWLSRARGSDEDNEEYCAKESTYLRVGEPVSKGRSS
Method: (§1)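 A pool of 90-nt single-stranded DNAs with seven random bases just before the constant AC of the nick site (name = the seven bases) was cut by 3 µM recombinant His6-SUMO-tagged Rep nickase domain (300 nM DNA, 50 mM HEPES pH 8.0, 50 mM NaCl, 1 mM MnCl2, 1 h, 37 °C, three replicates). Uncut DNA was amplified and sequenced.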

[2] = test system: T2, Rep nickase domain of banana bunchy top virus
T2 sequence (Rep 1-94, printed without the tag): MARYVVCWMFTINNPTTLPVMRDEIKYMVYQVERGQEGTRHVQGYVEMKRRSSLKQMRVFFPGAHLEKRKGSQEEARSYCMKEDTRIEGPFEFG
Method: as §1

[3] = test system: T3, Rep nickase domain of cabbage leaf curl virus
T3 sequence (Rep 1-116, printed without the tag): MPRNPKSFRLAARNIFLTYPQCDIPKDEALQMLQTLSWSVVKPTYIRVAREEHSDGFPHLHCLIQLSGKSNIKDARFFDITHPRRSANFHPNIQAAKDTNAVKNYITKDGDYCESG
Method: as §1

[4] = test system: T4, Rep nickase domain of chickpea chlorotic dwarf virus
T4 sequence (Rep 1-124, printed without the tag): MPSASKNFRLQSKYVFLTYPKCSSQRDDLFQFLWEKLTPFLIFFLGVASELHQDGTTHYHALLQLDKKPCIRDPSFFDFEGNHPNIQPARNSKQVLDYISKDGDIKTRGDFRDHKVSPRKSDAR
Method: as §1

[5] = test system: T5, Rep nickase domain of faba bean necrotic yellows virus
T5 sequence (Rep 1-98, printed without the tag): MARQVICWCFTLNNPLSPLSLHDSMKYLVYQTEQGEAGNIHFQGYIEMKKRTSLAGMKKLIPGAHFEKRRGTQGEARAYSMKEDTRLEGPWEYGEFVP
Method: as §1

[6] = test system: T6, Rep nickase domain of maize striate mosaic virus
T6 sequence (Rep 1-117, printed without the tag): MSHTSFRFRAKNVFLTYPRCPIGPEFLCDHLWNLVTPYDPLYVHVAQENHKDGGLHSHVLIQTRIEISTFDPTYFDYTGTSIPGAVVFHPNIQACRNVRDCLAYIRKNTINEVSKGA
Method: as §1

[7] = test system: T7, Rep nickase domain of porcine circovirus 2
T7 sequence (Rep 2-116, printed without the tag): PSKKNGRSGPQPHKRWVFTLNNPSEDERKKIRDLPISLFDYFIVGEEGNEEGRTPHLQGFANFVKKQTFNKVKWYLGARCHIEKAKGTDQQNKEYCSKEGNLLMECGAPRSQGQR
Method: as §1

[8] = test system: T8, Rep nickase domain of tomato yellow leaf curl virus
T8 sequence (Rep 1-136, printed without the tag): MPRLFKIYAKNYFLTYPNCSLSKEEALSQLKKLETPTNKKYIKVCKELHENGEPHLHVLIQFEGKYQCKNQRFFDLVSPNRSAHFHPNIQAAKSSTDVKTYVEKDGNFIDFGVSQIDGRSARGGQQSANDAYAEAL
Method: as §1

[9] = test system: T9, Rep nickase domain of wheat dwarf virus
T9 sequence (Rep 1-137, printed without the tag): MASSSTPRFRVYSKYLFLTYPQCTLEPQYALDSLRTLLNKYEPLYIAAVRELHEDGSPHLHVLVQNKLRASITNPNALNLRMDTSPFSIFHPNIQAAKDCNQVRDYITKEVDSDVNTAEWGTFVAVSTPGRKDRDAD
Method: as §1

Sequence	uncleaved DNA left (log2) [1]	uncleaved DNA left (log2) [2]	uncleaved DNA left (log2) [3]	uncleaved DNA left (log2) [4]	uncleaved DNA left (log2) [5]	uncleaved DNA left (log2) [6]	uncleaved DNA left (log2) [7]	uncleaved DNA left (log2) [8]	uncleaved DNA left (log2) [9]
TAGCCGC	-0.0807	-0.145	-0.63	-0.919	-0.0842	-0.991	-0.0948	0.0118	-0.18
TACCCAC	-0.168	-0.258	-0.132	-1.46	-0.14	-0.743	-1.26	-0.057	-0.0602
CCCTTCG	0.019	-0.221	-0.934	0.23	-0.0618	-0.742	0.0956	0.0374	-0.0223
GACTGGA	-0.0526	-0.0578	0.0413	0.411	-0.138	0.794	-0.542	-0.0914	-0.0882
CCCAAAT	-0.0558	0.018	-0.0649	-0.672	0.0689	-0.737	-0.166	0.082	-0.041
TCGATCC	0.154	-0.0214	0.212	0.00524	0.146	-0.0251	0.0471	-0.0523	-0.00709
TTATGAC	-0.038	-0.0896	0.156	0.0859	-0.0245	-0.384	-0.0322	-0.0237	-0.0775
GATCGAC	-0.0629	-0.0941	0.0345	0.546	-0.0509	0.579	-0.0207	-0.101	0.0055
GAAACGC	0.147	0.137	0.0683	0.0921	0.0271	-0.421	0.2	0.106	0.137
CTAAAAA	0.00614	0.13	0.138	0.0363	0.092	-0.698	0.129	0.0311	0.149
CGAGTGC	-0.0606	0.0353	-0.0357	0.528	-0.0458	0.818	0.136	-0.0649	0.076
ACCTTAC	0.00267	0.00624	-0.412	-2.08	0.111	-1.13	-0.0164	-0.0941	-0.00803
TACCGGC	0.246	0.141	0.204	0.0926	0.261	-0.335	0.0996	0.185	0.0756
CGGCACG	-0.117	-0.21	-0.652	-0.47	-0.058	-0.802	-0.00899	-0.131	-0.224
CATTGGA	0.094	-0.0525	-0.717	-0.691	0.057	-1.16	-0.155	0.158	0.095
GAGGTTC	0.0821	0.0577	0.22	0.421	-0.0433	1.49	-0.00392	0.0677	0.0748
CTGCCAG	0.16	-0.0192	-0.696	-0.272	0.0731	-0.916	0.0287	0.0442	-0.00938
GGCCACA	-0.0102	0.0769	0.497	1.15	-0.0294	1.72	0.0943	0.0465	0.0736
ATCTGGG	-0.0591	-0.0396	-0.559	-0.504	-0.079	-1.13	0.133	0.0515	-0.105
CTGTTAG	-0.0888	-0.086	-0.941	-0.47	0.000931	-1.18	0.121	0.00794	-0.103

Sequence	uncleaved DNA left (log2) [1]	uncleaved DNA left (log2) [2]	uncleaved DNA left (log2) [3]	uncleaved DNA left (log2) [4]	uncleaved DNA left (log2) [5]	uncleaved DNA left (log2) [6]	uncleaved DNA left (log2) [7]	uncleaved DNA left (log2) [8]	uncleaved DNA left (log2) [9]
CGAAAAA	0.0687	0.0335	0.0169	-0.0627	-0.0223	-0.52	0.228	0.118	0.135
AAAATTC	0.187	0.149	-0.0983	-0.635	0.129	-0.876	0.144	0.134	-0.0171
CCTCTCT	-0.108	-0.0157	-0.145	-2.14	-0.0831	-0.516	-0.178	-0.0215	-0.128
AGAAATG	-0.0108	0.0973	-0.0911	0.338	-0.0373	0.573	0.18	-0.051	0.108
TTTTCCC	-0.182	-0.101	0.0984	-0.437	-0.144	-0.363	-0.328	-0.0747	-0.147
GAGGAGG	0.105	0.128	0.49	0.985	0.0082	0.872	0.194	0.102	0.129
TGGTTAT	-0.236	-0.0615	0.349	0.527	-0.0806	1.29	-1.22	0.0517	0.0738
CCCCTGA	0.121	0.034	0.0411	-0.217	0.00835	-0.395	-0.0706	-0.103	0.0542
GGACTAG	-0.0396	0.0635	0.536	1.5	0.00305	1.63	0.0742	0.104	0.0708
TTATTCG	0.0471	-0.13	-0.962	0.0701	-0.00331	-1.12	0.0902	-0.0556	-0.184
TGCGTTC	0.204	0.0356	-0.161	-0.42	0.0198	-0.688	0.0698	0.102	0.0145
GTAAATT	0.024	0.0986	0.253	0.548	0.0283	1.67	0.0248	0.0958	-0.0104
GCAAGGC	0.0774	0.132	0.00921	0.313	0.0761	-0.623	0.212	0.0912	0.0758
ACGAAAT	0.0582	0.151	0.0724	-0.336	0.058	-0.333	0.115	0.0651	0.17
TCTCTGG	0.142	-0.0133	0.418	0.837	0.136	0.98	0.191	0.0882	0.111
AAGTTAA	-0.0964	-0.0383	-0.278	-0.443	0.0524	-0.299	-2.83	-0.069	-0.00973
TTGGCAA	0.116	0.0802	0.262	0.605	0.102	0.39	0.157	0.0279	0.144
CTCCATC	-0.0234	-0.0966	-0.075	-0.361	0.0261	-0.743	-0.105	-0.00254	-0.079
TTCAACC	-0.27	0.0115	0.107	-1.45	-0.118	-0.165	-1.12	0.0416	0.023
ATGCCCG	0.146	0.0256	-0.719	-0.12	0.22	-0.802	-0.0847	-0.0849	-0.0217

Sequence	uncleaved DNA left (log2) [1]	uncleaved DNA left (log2) [2]	uncleaved DNA left (log2) [3]	uncleaved DNA left (log2) [4]	uncleaved DNA left (log2) [5]	uncleaved DNA left (log2) [6]	uncleaved DNA left (log2) [7]	uncleaved DNA left (log2) [8]	uncleaved DNA left (log2) [9]
TACGGGT	-0.000852	0.0171	0.179	0.729	-0.0177	1.24	0.132	0.0151	-0.00848
CGCTATT	-2.74	-1.4	-0.825	-2.23	-0.332	-0.763	-3.11	-0.161	-0.557
GTCCGTG	-0.0562	0.0894	0.196	0.643	-0.0395	1.21	-0.00693	0.0199	-0.031
ACGCGCG	0.00332	0.0211	-0.26	1.22	-0.132	0.811	0.177	-0.00639	-0.0378
TATGCAG	0.0255	-0.0971	-0.682	-0.373	-0.0183	-1.24	0.151	0.131	-0.125
CTTGGGG	0.0589	0.0753	0.142	0.492	-0.0418	-0.026	0.22	0.0167	0.0203
CTGTGTA	-0.178	-0.182	-0.276	-0.754	-0.0559	-0.696	-0.488	-0.101	-0.11
GCAAATA	0.000557	0.112	-0.0742	-0.498	-0.0179	0.0436	0.0798	0.0692	0.1
TCTTTCA	-0.117	0.0444	0.189	-0.971	0.00152	-0.261	-0.188	0.0171	0.121
GGAATAC	0.0424	0.182	0.683	1.47	0.0374	1.88	0.259	0.124	0.259
AGTGCGT	0.0284	-0.0378	-0.723	-0.287	0.172	-0.632	-0.273	0.147	-0.1
ATCGAGC	0.122	0.0371	0.0965	0.406	0.102	-0.589	0.236	0.0589	0.097
TATAACG	0.0271	-0.0304	-0.884	-0.87	0.0732	-1.09	0.123	0.00121	-0.123
CGCTTAC	0.0406	-0.171	-0.307	-1.69	-0.147	-0.669	-0.137	-0.0815	-0.104
CCGCAGA	-0.0995	-0.154	-0.0032	-0.0516	-0.192	-0.416	-0.0551	-0.0339	-0.115
AGTGTAT	0.025	0.0255	0.223	0.526	-0.092	1.06	-2.66	-0.00368	-0.0482
TCATTCC	0.039	-0.0255	0.223	0.212	-0.0212	-0.0658	0.0593	-0.0201	-0.0142
TCAGGCA	0.0493	0.0183	0.0553	0.332	0.128	0.0314	-0.0242	0.0433	0.000902
GGCATTG	0.0408	0.0417	0.0668	0.711	-0.0533	1.01	0.0471	0.0616	-0.0122
CGGTTCC	-0.0587	-0.0589	0.242	0.535	-0.0148	0.958	-0.0538	0.0601	-0.0725
